# The other results are listed elsewhere or left out.
# B1: PhoQ; a variant is named by its letters at X, in order, P23837 (parent)
# chain: MKKLLRLFFPLSLRVRFLLATAAVVLVLSLAYGMVALIGYSVSFDKTTFRLLRGESNLFYTLAKWENNKLHVELPENIDKQSPTMTLIYDENGQLLWAQRDVPWLMKMIQPDWLKSNGFHEIEADVNDTSLLLSGDHSIQQQLQEVREDDDDAEMTHSVAVNVYPATSRMPKLTIVVVDTIPVELKSSYMVWSWFIYVLSANLLLVIPLLWVAAWWSLRPIEALAKEVRELEEHNRELLNPATTRELTSLVRNLNRLLKSERERYDKYRTTLTDLTHSLKTPLXXLQXXLRSLRSEKMSVSDAEPVMLEQISRISQQIGYYLHRASMRGGTLLSRELHPVAPLLDNLTSALNKVYQRKGVNISLDISPEISFVGEQNDFVEVMGNVLDNACKYCLEFVEISARQTDEHLYIVVEDDGPGIPLSKREVIFDRGQRVDTLRPGQGVGLAVAREITEQYEGKIVAGESMLGGARMEVIFGRQHSAPKDE
# Variants of: B1
# Assay: enrichment ratio after two sorts for PhoP signalling (ratio (wild type AVST 3.29)); higher = more functional
# Details: with PhoP (E. coli)
row,Variant,enrichment ratio
1,PDAV,≤ 0.25
2,DSMY,≤ 0.25
3,ARVG,≤ 0.25
4,NDFW,≤ 0.25
5,RKNM,≤ 0.25
6,GHFN,≤ 0.25
7,RFRC,≤ 0.25
8,RGPI,≤ 0.25
9,KNNV,≤ 0.25
10,DYKF,≤ 0.25
11,EMTQ,≤ 0.25
12,ISPH,≤ 0.25
13,KRMD,≤ 0.25
14,TTSI,17.1
15,IMTV,≤ 0.25
16,GMHI,≤ 0.25
17,MWIQ,≤ 0.25
18,HTMM,3.76
19,HAPM,≤ 0.25
20,YCYW,≤ 0.25
21,RDRQ,≤ 0.25
22,SLTI,10.1
23,TPGT,≤ 0.25
24,WECK,≤ 0.25
25,LKNA,≤ 0.25

row,Variant,enrichment ratio
1,MMFQ,≤ 0.25
2,RSQI,≤ 0.25
3,YMQK,≤ 0.25
4,ARCT,2.13
5,GFHW,≤ 0.25
6,VRIQ,≤ 0.25
7,HLSM,≤ 0.25
8,FFWK,≤ 0.25
9,MMYV,≤ 0.25
10,GGVM,4.61
11,WTNI,≤ 0.25
12,DSRD,≤ 0.25
13,DKGY,≤ 0.25
14,MFEH,≤ 0.25
15,NWSY,≤ 0.25
16,KMFM,≤ 0.25
17,VHSD,≤ 0.25
18,APAW,≤ 0.25
19,KHTY,≤ 0.25
20,GHKQ,≤ 0.25
21,YWCM,≤ 0.25
22,VQGL,≤ 0.25
23,EGHN,≤ 0.25
24,NDFI,≤ 0.25
25,YHWE,≤ 0.25

row,Variant,enrichment ratio
1,TCEE,≤ 0.25
2,PDIF,≤ 0.25
3,WQWD,≤ 0.25
4,FWPF,≤ 0.25
5,HHNS,≤ 0.25
6,APIC,≤ 0.25
7,NQSP,≤ 0.25
8,GSFH,≤ 0.25
9,EYTL,≤ 0.25
10,FYMY,≤ 0.25
11,NSNP,≤ 0.25
12,DSTE,≤ 0.25
13,HMVQ,≤ 0.25
14,AQCT,20.8
15,SAPA,≤ 0.25
16,STAL,11.5
17,ACLE,1.64
18,HGHI,≤ 0.25
19,PGQM,≤ 0.25
20,VAWW,≤ 0.25
21,AQAW,≤ 0.25
22,LRDQ,≤ 0.25
23,VAFT,≤ 0.25
24,HQHG,≤ 0.25
25,GMEH,≤ 0.25

row,Variant,enrichment ratio
1,PAPS,≤ 0.25
2,WSHR,≤ 0.25
3,EGVM,≤ 0.25
4,TPTA,≤ 0.25
5,RRIK,≤ 0.25
6,ACTT,3.93
7,EVGA,≤ 0.25
8,LMLF,≤ 0.25
9,LRCN,≤ 0.25
10,VCAT,≤ 0.25
11,NPPM,≤ 0.25
12,NNER,≤ 0.25
13,TYWW,≤ 0.25
14,HDTS,≤ 0.25
15,FNGG,≤ 0.25
16,WIAK,≤ 0.25
17,VHDC,≤ 0.25
18,DTQK,≤ 0.25
19,IWVQ,≤ 0.25
20,ADHR,≤ 0.25
21,ADYN,≤ 0.25
22,WCWV,≤ 0.25
23,LYEY,≤ 0.25
24,RFPY,≤ 0.25
25,ITWV,≤ 0.25

row,Variant,enrichment ratio
1,FHPP,≤ 0.25
2,NMYW,≤ 0.25
3,MAIK,≤ 0.25
4,ENQN,≤ 0.25
5,WQNG,≤ 0.25
6,IRMW,≤ 0.25
7,RWAT,≤ 0.25
8,CFAN,≤ 0.25
9,MNQI,≤ 0.25
10,FPMG,≤ 0.25
11,HKVN,≤ 0.25
12,NRWH,≤ 0.25
13,MNFD,≤ 0.25
14,PHVD,≤ 0.25
15,AQDW,≤ 0.25
16,FFNE,≤ 0.25
17,PECD,≤ 0.25
18,ETDH,≤ 0.25
19,TSRC,≤ 0.25
20,RKPS,≤ 0.25
21,DAYT,≤ 0.25
22,PNYD,≤ 0.25
23,DIPV,≤ 0.25
24,VLYC,≤ 0.25
25,MSTT,0.617

row,Variant,enrichment ratio
1,DMFC,≤ 0.25
2,NKYQ,≤ 0.25
3,EDFN,≤ 0.25
4,IMTR,≤ 0.25
5,PECI,≤ 0.25
6,PLQI,≤ 0.25
7,FAGD,≤ 0.25
8,DCVP,≤ 0.25
9,GANL,≤ 0.25
10,WKIF,≤ 0.25
11,VNSY,≤ 0.25
12,RIIH,≤ 0.25
13,AKQY,≤ 0.25
14,VVPV,≤ 0.25
15,QIHC,≤ 0.25
16,NPGH,≤ 0.25
17,ELNF,≤ 0.25
18,QVAV,≤ 0.25
19,KSEG,≤ 0.25
20,LKRC,≤ 0.25
21,KRWG,≤ 0.25
22,GGCC,1.09
23,DKCN,≤ 0.25
24,DAQK,≤ 0.25
25,HNYQ,≤ 0.25

row,Variant,enrichment ratio
1,RGTQ,≤ 0.25
2,GLGF,≤ 0.25
3,WYLC,≤ 0.25
4,QFIK,≤ 0.25
5,VQLN,≤ 0.25
6,KVCP,≤ 0.25
7,ACPF,≤ 0.25
8,TTRH,≤ 0.25
9,YPLH,≤ 0.25
10,GHVT,≤ 0.25
11,PPFM,≤ 0.25
12,STYG,≤ 0.25
13,DASS,≤ 0.25
14,GWCF,≤ 0.25
15,AQHL,≤ 0.25
16,QWYK,≤ 0.25
17,FWSE,≤ 0.25
18,MRML,≤ 0.25
19,APDG,≤ 0.25
20,QLDW,≤ 0.25
21,VFKI,≤ 0.25
22,QACA,≤ 0.25
23,PQPP,≤ 0.25
24,HCKV,≤ 0.25
25,AMSH,4.9

row,Variant,enrichment ratio
1,HRQY,≤ 0.25
2,IFGG,≤ 0.25
3,WQTC,≤ 0.25
4,TPSA,≤ 0.25
5,RTIY,≤ 0.25
6,RPYS,≤ 0.25
7,NVFM,≤ 0.25
8,NEHS,≤ 0.25
9,SIDC,≤ 0.25
10,PRMY,≤ 0.25
11,DKWT,≤ 0.25
12,FAYK,≤ 0.25
13,DMPM,≤ 0.25
14,LTPL,≤ 0.25
15,TREF,≤ 0.25
16,EIFP,≤ 0.25
17,QILP,≤ 0.25
18,WYNW,2.3
19,TPNC,≤ 0.25
20,SIPP,≤ 0.25

# — a collection of fitness landscapes (doi:10.1126/science.1257360)
